This data set deals with the molecule itself. The experiment in a line: hydrodynamic analysis.

B1: full-length Bnr1 (natural protein)
chain: not shown
As for B1, the “stoichiometry N” value was 2.

B2: full-length Bni1 (natural protein)
chain: not shown
Turning to B2, the “stoichiometry N” value came to 2.

The record behind these values is article PMC3416746 (Cytoskeleton (Hoboken, N.J.), 2012).
